Laboratory results as given in the RNAGym collection of RNA variant scans (doi:10.1073/pnas.2313332121).
Variants at the background level are over-represented here.

B1: TPR 5TU (parent)
chain: GGAUCUUCUCGAUCUAACAAAAAAGACAAAUCUGCCACAAAGCUUGAGAGCAUCUUCGGAUGCAGAGGCGGCAGCCUUCGGUGGCGCGAUAGCGCCAACGUUCUCAACUAUGACACGCAAAACGCGUGCUCCGUUGAAUGGAGUUUAUCAUG

Variants of: B1
Test: polymerase ribozyme fitness, log enrichment relative to wild type (log ratio); higher = more active; in vitro selection for triplet polymerase activity
Outline: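 Streptavidin-bead capture of gel-excised extended constructs, followed by RT-PCR, closed a single triplicate in vitro selection round. That round began by annealing PCR-built, transcribed mutant libraries of each subunit of a heterodimeric triplet polymerase ribozyme with a biotinylated primer, the partner subunit and triplets, then incubating them frozen at −7 °C. After Illumina sequencing of inputs and outputs, genotypes needed ≥10 input reads and ≥1 read per output. Fitness is the base-2 logarithm of genotype enrichment over wild-type enrichment, using inverse-variance-weighted replicate averages.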

**Q.** For C14G A41G C54G C57U G92A U148A, which “polymerase ribozyme fitness (log ratio)” value is on record?
**A.** ≤ -4.2

**Q.** For U13G U31G A47G C85A G86A C132U G133C, which “polymerase ribozyme fitness (log ratio)” value is on record?
**A.** ≤ -4.2

**Q.** With A12U A20U G83U C129A as the variant, how does the “polymerase ribozyme fitness (log ratio)” value read?
**A.** ≤ -4.2

**Q.** With U13C A20C U55A A73U C85G G126U as the variant, how does the “polymerase ribozyme fitness (log ratio)” value read?
**A.** ≤ -4.2

**Q.** For A12U A20U A21C C87G A142G, which “polymerase ribozyme fitness (log ratio)” value is on record?
**A.** ≤ -4.2

**Q.** Which “polymerase ribozyme fitness (log ratio)” value does the source give for U13A C32U G67C C85A C105U G140A here?
**A.** ≤ -4.2

**Q.** For U13G G25C C57G A73G A137C, which “polymerase ribozyme fitness (log ratio)” value is on record?
**A.** ≤ -4.2

**Q.** For A12U G48U A49C C69G G86A C93U U139G A150G, which “polymerase ribozyme fitness (log ratio)” value is on record?
**A.** ≤ -4.2

**Q.** Which “polymerase ribozyme fitness (log ratio)” value does the source give for U13G G58C G62U U82A G86U U127C U146G here?
**A.** ≤ -4.2

**Q.** Which “polymerase ribozyme fitness (log ratio)” value does the source give for C14G A49C A52C U53A C63U A64U A66G C69A C85U U111G A115U A147U C149G here?
**A.** ≤ -4.2

**Q.** Which “polymerase ribozyme fitness (log ratio)” value does the source give for A12U A26C A29G C38A G88C G92U U104C A115U here?
**A.** ≤ -4.2

**Q.** Which “polymerase ribozyme fitness (log ratio)” value does the source give for U13C C36A C93U A107U G112U G140U here?
**A.** ≤ -4.2

**Q.** Which “polymerase ribozyme fitness (log ratio)” value does the source give for C14A A28U C76A U77G C93A here?
**A.** ≤ -4.2

**Q.** With U13G U56A G86U C131U as the variant, how does the “polymerase ribozyme fitness (log ratio)” value read?
**A.** -4.16

**Q.** Which “polymerase ribozyme fitness (log ratio)” value does the source give for C14A A49G C54U G71A U77C G86U G143A here?
**A.** ≤ -4.2

**Q.** For U13G C35A G50A C54A C76G C87G A89U A107C G141C, which “polymerase ribozyme fitness (log ratio)” value is on record?
**A.** ≤ -4.2

**Q.** With U13C A37C U45G A49C G68A C79A as the variant, how does the “polymerase ribozyme fitness (log ratio)” value read?
**A.** ≤ -4.2

**Q.** With U13G C57U A66C as the variant, how does the “polymerase ribozyme fitness (log ratio)” value read?
**A.** ≤ -4.2

**Q.** For U13A C32A U44C C75U C76U, which “polymerase ribozyme fitness (log ratio)” value is on record?
**A.** ≤ -4.2

**Q.** Which “polymerase ribozyme fitness (log ratio)” value does the source give for C14A C38U G50A G58U G70C C105G here?
**A.** ≤ -4.2

**Q.** With C14G A22G C43U C96U U109C C114A as the variant, how does the “polymerase ribozyme fitness (log ratio)” value read?
**A.** ≤ -4.2

**Q.** For A12U A28C C57U G68A G92C G126U, which “polymerase ribozyme fitness (log ratio)” value is on record?
**A.** ≤ -4.2

**Q.** For C14A A19G G68A C99A C123U, which “polymerase ribozyme fitness (log ratio)” value is on record?
**A.** ≤ -4.2

**Q.** Which “polymerase ribozyme fitness (log ratio)” value does the source give for U13G U61A A89U C96U here?
**A.** -3.58

**Q.** For U13A U53A G71A A107G U146G, which “polymerase ribozyme fitness (log ratio)” value is on record?
**A.** ≤ -4.2

**Q.** For A12U A39C A52G C57G, which “polymerase ribozyme fitness (log ratio)” value is on record?
**A.** -4.2

**Q.** For U13A A20U G48A U56A G88U C96A A122C, which “polymerase ribozyme fitness (log ratio)” value is on record?
**A.** ≤ -4.2

**Q.** For A12U G48C A66U G71A C87U, which “polymerase ribozyme fitness (log ratio)” value is on record?
**A.** ≤ -4.2

**Q.** With A12U A22C C57A G80C C85U G117A U130G as the variant, how does the “polymerase ribozyme fitness (log ratio)” value read?
**A.** ≤ -4.2

**Q.** For C14G C27U C57U U102G A120U C149U, which “polymerase ribozyme fitness (log ratio)” value is on record?
**A.** ≤ -4.2

**Q.** Which “polymerase ribozyme fitness (log ratio)” value does the source give for A12U U56A A115G here?
**A.** -2.11

**Q.** With C14G A24U C75U U78A C87G as the variant, how does the “polymerase ribozyme fitness (log ratio)” value read?
**A.** ≤ -4.2

**Q.** With U13G A26C G42U U53A U78A A107U as the variant, how does the “polymerase ribozyme fitness (log ratio)” value read?
**A.** ≤ -4.2

**Q.** For U13G A41U C43U C75G G80C U101C C103A C116A A121C, which “polymerase ribozyme fitness (log ratio)” value is on record?
**A.** ≤ -4.2

**Q.** For U13A C85U A107U C125A G126C, which “polymerase ribozyme fitness (log ratio)” value is on record?
**A.** ≤ -4.2

**Q.** With C14G A40C G50A G71C A97G A106G A138U as the variant, how does the “polymerase ribozyme fitness (log ratio)” value read?
**A.** ≤ -4.2

**Q.** For C14G A28G C51U A52U G88A U109G, which “polymerase ribozyme fitness (log ratio)” value is on record?
**A.** ≤ -4.2

**Q.** With U13G A40C C57A C125A A142U U146C U148A as the variant, how does the “polymerase ribozyme fitness (log ratio)” value read?
**A.** ≤ -4.2

**Q.** For C14A C54U, which “polymerase ribozyme fitness (log ratio)” value is on record?
**A.** -2.07

**Q.** For A12U A21U C36U G42C C96G U104A, which “polymerase ribozyme fitness (log ratio)” value is on record?
**A.** ≤ -4.2

**Q.** With U13A G62A A142G as the variant, how does the “polymerase ribozyme fitness (log ratio)” value read?
**A.** -2.22

**Q.** With C14G C27G G94A as the variant, how does the “polymerase ribozyme fitness (log ratio)” value read?
**A.** ≤ -4.2

**Q.** For A12U C51U, which “polymerase ribozyme fitness (log ratio)” value is on record?
**A.** -2.53

**Q.** With U13A C27G A40U G70C C85U G112C G133A as the variant, how does the “polymerase ribozyme fitness (log ratio)” value read?
**A.** ≤ -4.2

**Q.** For A12U A29U A37U C93G G112C G136C, which “polymerase ribozyme fitness (log ratio)” value is on record?
**A.** ≤ -4.2

**Q.** Which “polymerase ribozyme fitness (log ratio)” value does the source give for A12U C14G C38U A47U A52G C54A C57U C75A A91G here?
**A.** ≤ -4.2

**Q.** Which “polymerase ribozyme fitness (log ratio)” value does the source give for C14A A19G G48U A66C A73G G84U U135A U151G here?
**A.** ≤ -4.2

**Q.** Which “polymerase ribozyme fitness (log ratio)” value does the source give for U13A U111G here?
**A.** ≤ -4.2

**Q.** For C14G A16G A49U C87A A115C, which “polymerase ribozyme fitness (log ratio)” value is on record?
**A.** ≤ -4.2

**Q.** For C14A A39U A49C C57A C79G G86U, which “polymerase ribozyme fitness (log ratio)” value is on record?
**A.** ≤ -4.2

**Q.** With U13A A23G C32A G58A C69G C85U as the variant, how does the “polymerase ribozyme fitness (log ratio)” value read?
**A.** ≤ -4.2

**Q.** With U13A A19U A22U A26U G70U C96A U111A as the variant, how does the “polymerase ribozyme fitness (log ratio)” value read?
**A.** ≤ -4.2

**Q.** With U13A A19G C35G C57A C79G A91C A121G as the variant, how does the “polymerase ribozyme fitness (log ratio)” value read?
**A.** ≤ -4.2

**Q.** Which “polymerase ribozyme fitness (log ratio)” value does the source give for C14A A89C A91C A142G here?
**A.** ≤ -4.2

**Q.** Which “polymerase ribozyme fitness (log ratio)” value does the source give for C14A A40G G58C C87G U148C here?
**A.** ≤ -4.2

**Q.** With C14G A19G C93A C95G A107G C123G G143C A150G as the variant, how does the “polymerase ribozyme fitness (log ratio)” value read?
**A.** ≤ -4.2

**Q.** For U13G A49U, which “polymerase ribozyme fitness (log ratio)” value is on record?
**A.** -2.21

**Q.** For U13G G42C C69U C93U A119C, which “polymerase ribozyme fitness (log ratio)” value is on record?
**A.** ≤ -4.2

**Q.** Which “polymerase ribozyme fitness (log ratio)” value does the source give for C14G C51A U56A C75G G136U here?
**A.** ≤ -4.2

**Q.** With U13G A60C G80C G126U C131A as the variant, how does the “polymerase ribozyme fitness (log ratio)” value read?
**A.** ≤ -4.2

**Q.** With U13A A73G G84A as the variant, how does the “polymerase ribozyme fitness (log ratio)” value read?
**A.** -0.387

**Q.** With U13C G58A G88U U90A U102G as the variant, how does the “polymerase ribozyme fitness (log ratio)” value read?
**A.** ≤ -4.2

**Q.** With A12U U44C G68U as the variant, how does the “polymerase ribozyme fitness (log ratio)” value read?
**A.** ≤ -4.2

**Q.** Which “polymerase ribozyme fitness (log ratio)” value does the source give for C14G A52G U55A G59C U102A A110G U134A here?
**A.** ≤ -4.2

**Q.** Which “polymerase ribozyme fitness (log ratio)” value does the source give for U13G C36A C85U A115U U139C here?
**A.** ≤ -4.2

**Q.** With U13G A73G G141C as the variant, how does the “polymerase ribozyme fitness (log ratio)” value read?
**A.** ≤ -4.2

**Q.** With C14G C36G C87U A113C U148C as the variant, how does the “polymerase ribozyme fitness (log ratio)” value read?
**A.** ≤ -4.2

**Q.** With U13G A39U G86C C95U C118U as the variant, how does the “polymerase ribozyme fitness (log ratio)” value read?
**A.** ≤ -4.2

**Q.** Which “polymerase ribozyme fitness (log ratio)” value does the source give for A12U C85A U139G here?
**A.** -0.992

**Q.** With C14A A66G C85G A106C C116U as the variant, how does the “polymerase ribozyme fitness (log ratio)” value read?
**A.** ≤ -4.2

**Q.** For U13A C18U U33A A73C C93A U109G, which “polymerase ribozyme fitness (log ratio)” value is on record?
**A.** ≤ -4.2

**Q.** For C14G C38U C95U C103A U148C, which “polymerase ribozyme fitness (log ratio)” value is on record?
**A.** ≤ -4.2

**Q.** For C14G A41C C57G A60G C76G U101C, which “polymerase ribozyme fitness (log ratio)” value is on record?
**A.** ≤ -4.2

**Q.** Which “polymerase ribozyme fitness (log ratio)” value does the source give for U13G C27A C51U C85A C96G here?
**A.** ≤ -4.2

**Q.** With A12U U77A C79U G86U A98C U101G A142G as the variant, how does the “polymerase ribozyme fitness (log ratio)” value read?
**A.** ≤ -4.2

**Q.** For A12U G81C G84A A115U, which “polymerase ribozyme fitness (log ratio)” value is on record?
**A.** ≤ -4.2

**Q.** For C14G C38G C96A G112U G117C, which “polymerase ribozyme fitness (log ratio)” value is on record?
**A.** ≤ -4.2

**Q.** For C14A A17C C36A U44A U45A C54A C85G G88U C103G A110C, which “polymerase ribozyme fitness (log ratio)” value is on record?
**A.** ≤ -4.2

**Q.** With U13C C18U U44A C96U C105G C116U C118G G143C as the variant, how does the “polymerase ribozyme fitness (log ratio)” value read?
**A.** ≤ -4.2

**Q.** For A12U C43U C95A, which “polymerase ribozyme fitness (log ratio)” value is on record?
**A.** ≤ -4.2

**Q.** Which “polymerase ribozyme fitness (log ratio)” value does the source give for U13G C51G A91C here?
**A.** ≤ -4.2

**Q.** With U13A G59A G80C as the variant, how does the “polymerase ribozyme fitness (log ratio)” value read?
**A.** ≤ -4.2

**Q.** For C14G A41C C93U C116G C149G, which “polymerase ribozyme fitness (log ratio)” value is on record?
**A.** ≤ -4.2
